Results from the RNAGym collection of RNA variant scans (doi:10.1093/nar/gkz1192).
The source gives no read counts; variants with many changes may rest on few reads.

B1: CPEB3 Ribozyme (parent)
chain: UAACAGGGGGCCACAGCAGAAGCGUUCACGUCGCAGCCCCUGUCAGAUUCUGGUGAAUCUGCGAAUUCUGCUGUAUAUCUC

Variants of: B1
Assay: self-cleavage, relative activity (ratio to wild type); higher = more cleavage; in vitro, sequencing
Outline: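 Barcoded CPEB3 ribozyme mutants, produced by rounds of error-prone PCR, self-cleaved while being transcribed with T7 RNA polymerase for 5 hours at 37°C and during a subsequent 15 min DNase I step before EDTA was added. Sequencing of template-switched cDNA on Illumina gave cleaved and total reads, and DNA sequencing assigned barcodes to variants. Each variant's relative activity is its cleaved/total read fraction divided by the unmutated ribozyme's fraction, averaged across three batches. A variant needed a minimum of 5 reads.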
Variant UAACAGGGGGCCACAGCAGAAGCGUUCACGUCGCUGCCCCAGUCAGAUUCUGGUGAAUCUGCGAAUCCUGCUGUAUAUCUC [A35U U41A U67C] has a self-cleavage of 0.13.
UAACAGGGGGCCACAGCAGAAGCGUUCACGUCGCUGCCCCAGUCAGAUUCUGGUGAAUCUGCGAAUUCUGCUGUAUAUCAC [A35U U41A U80A] gave a self-cleavage of 0.13.
With UAACAGGGGGCCACAGCAGAAGCGUUCACGUCGCUGCCCCAGUCAGAUUCUGGUGAAUCUGCGAAUUCUGCUGUAUAUCCC [A35U U41A U80C] the self-cleavage was 0.15.
Work on UAACAGGGGGCCACAGCAGAAGCGUUCACGUCGCUGCCCCCGUCGGAUUCUGGUGAAUCUGCGAAUUCUGCCGUAUAUCUC [A35U U41C A45G U72C] yielded a self-cleavage of 0.19.
Work on UAACAGGGGGCCACAGCAGAAGCGUUCACGUCGCUGCCCCCGUCAGAUUCUGGUGAAUCUGCGAAUUCUUCUGCAUAUCUC [A35U U41C G70U U74C] yielded a self-cleavage of 0.16.
Work on UAACAGGGGGCCACAGCAGAAGCGUUCACGUCGCUGCCCCCGCCAGACUCUGGUGAAUCUGCGAAUUCUGCUGUAUAUCUC [A35U U41C U43C U48C] yielded a self-cleavage of 0.06.
Work on UAACAGGGGGCCACAGCAGAAGCGUUCACGUCGCUGCCCCCGCCAGAUUCUGGUGAAUCUGCGAAUACUGCUGUAUAUCUC [A35U U41C U43C U67A] yielded a self-cleavage of 0.07.
Variant UAACAGGGGGCCACAGCAGAAGCGUUCACGUCGCUGCCCCCGUCAGAUUCUGGUGAAUCUGCGAAUUCUGCCGUAUAUCUC [A35U U41C U72C] has a self-cleavage of 0.8.
With UAACAGGGGGCCACAGCAGAAGCGUUCACGUCGCUGCCCCCGUCAGAUUCUGGUGAAUCUGCGAAUUCUGCUGCAUAUCUC [A35U U41C U74C] the self-cleavage was 0.99.
UAACAGGGGGCCACAGCAGAAGCGUUCACGUCGCUGCCCCGGUCUGAUUCUGGUGAAUCUGCGUAUUCUGCUGUAUAUCUC [A35U U41G A45U A64U] gave a self-cleavage of 0.14.
UAACAGGGGGCCACAGCAGAAGCGUUCACGUCGCUGCCCCGGUCAGGUUCUGGUGGAUCUGCGGAUUCUGCUGUAUAUCUC [A35U U41G A47G A56G A64G] gave a self-cleavage of 0.16.
In the case of UAACAGGGGGCCACAGCAGAAGCGUUCACGUCGCUGCCCCUGACGGAUUCUGGUGAAUCUGCGAAUUCUGCUGUAUAUCUC [A35U U43A A45G], the self-cleavage is reported as 0.43.
UAACAGGGGGCCACAGCAGAAGCGUUCACGUCGCUGCCCCUGACGGGUUCUGGUGAAUCUGCGAAUUCUGCUGUAUAUCUC [A35U U43A A45G A47G] showed a self-cleavage of 0.15.
UAACAGGGGGCCACAGCAGAAGCGUUCACGUCGCUGCCCCUGACAGAUUCUGAUGAAUCUACGAAUUCUGCUGUAUAUCUC [A35U U43A G53A G61A] showed a self-cleavage of 0.59.
UAACAGGGGGCCACAGCAGAAGCGUUCACGUCGCUGCCCCUGACAGAUUCUGGUGAAUCUGCGAAUUCUACUGUAUAUCUC [A35U U43A G70A] showed a self-cleavage of 0.45.
Variant UAACAGGGGGCCACAGCAGAAGCGUUCACGUCGCUGCCCCUGACAGAUUCUGGUGAAUCUGCGAAUUCUGCUUUAUAUCUC [A35U U43A G73U] has a self-cleavage of 0.92.
In the case of UAACAGGGGGCCACAGCAGAAGCGUUCACGUCGCUGCCCCUGACAGAUUCUGGUGAAUCCGCGGAUUCUGCUGUAUAUCUC [A35U U43A U60C A64G], the self-cleavage is reported as 0.09.
Work on UAACAGGGGGCCACAGCAGAAGCGUUCACGUCGCUGCCCCUGCCCGAUUCUGGUGAAUCUGCGAAUUCUGCUGUAUAUCUC [A35U U43C A45C] yielded a self-cleavage of 0.14.
For UAACAGGGGGCCACAGCAGAAGCGUUCACGUCGCUGCCCCUGCCGGAUUCAGGUGAAUCUGCGAACUCUGCUGUAUAUCCC [A35U U43C A45G U51A U66C U80C], the self-cleavage was 0.11.
UAACAGGGGGCCACAGCAGAAGCGUUCACGUCGCUGCCCCUGCCUGAUUCCGGUGAAUCUGCGAAUUCUGCUGUAUAUCUC [A35U U43C A45U U51C] showed a self-cleavage of 0.06.
With UAACAGGGGGCCACAGCAGAAGCGUUCACGUCGCUGCCCCUGCCAGAUUCUGGUGAAUCUGCGGAUCCUGCUGUAUAUCCC [A35U U43C A64G U67C U80C] the self-cleavage was 0.09.
Work on UAACAGGGGGCCACAGCAGAAGCGUUCACGUCGCUGCCCCUGCCAGACUCUGGUGAAUCUGCGAAUUCUGCUGUAUAUCUC [A35U U43C U48C] yielded a self-cleavage of 0.17.
UAACAGGGGGCCACAGCAGAAGCGUUCACGUCGCUGCCCCUGCCAGAUUCUGGUGAAUCUGCGAACUCUGCUGUAUAUCUC [A35U U43C U66C] showed a self-cleavage of 0.45.
In the case of UAACAGGGGGCCACAGCAGAAGCGUUCACGUCGCUGCCCCUGCCAGAUUCUGGUGAAUCUGCGAAUUCUGCUGUAAAUCUC [A35U U43C U76A], the self-cleavage is reported as 0.33.
UAACAGGGGGCCACAGCAGAAGCGUUCACGUCGCUGCCCCUGUCAGACUCUGGUGGAUCUGCGAAUCCCGCCGUAUAUCUC [A35U U48C A56G U67C U69C U72C] gave a self-cleavage of 0.07.
Variant UAACAGGGGGCCACAGCAGAAGCGUUCACGUCGCUGCCCCUGUCAGACACUGGUGAAUCCGCGAAUUCUGCUGUAUAUCUC [A35U U48C U49A U60C] has a self-cleavage of 0.11.
For UAACAGGGGGCCACAGCAGAAGCGUUCACGUCGCUGCCCCUGUCAGACUCAGGUGAAUCUGCGAAUUCUGCUGUAUACCUC [A35U U48C U51A U78C], the self-cleavage was 0.12.
UAACAGGGGGCCACAGCAGAAGCGUUCACGUCGCUGCCCCUGUCAGACUCUGGCGAAUCUGUGAAUUCUGCUGAAUAUCUC [A35U U48C U54C C62U U74A] gave a self-cleavage of 0.1.
UAACAGGGGGCCACAGCAGAAGCGUUCACGUCGCUGCCCCUGUCAGACUCUGGUGAAUCUGCGAACUCUGCUGUAUAUCUC [A35U U48C U66C] showed a self-cleavage of 0.18.
Work on UAACAGGGGGCCACAGCAGAAGCGUUCACGUCGCUGCCCCUGUCAGAUACUGGUGAAUCUGCGAAUUCUGCUGUAUGCCUC [A35U U49A A77G U78C] yielded a self-cleavage of 0.11.
Variant UAACAGGGGGCCACAGCAGAAGCGUUCACGUCGCUGCCCCUGUCAGAUACAGGUGAGUCUGCGAAUUCUGCUGUAUAUCUC [A35U U49A U51A A57G] has a self-cleavage of 0.41.
Work on UAACAGGGGGCCACAGCAGAAGCGUUCACGUCGCUGCCCCUGUCAGAUACAGGUGAAUCUGCGAAUUCUGCUGUCUAUCUC [A35U U49A U51A A75C] yielded a self-cleavage of 0.27.
UAACAGGGGGCCACAGCAGAAGCGUUCACGUCGCUGCCCCUGUCAGAUACUGGUGAAUCUGCGAAAUCUGCAGUAUAUCUC [A35U U49A U66A U72A] gave a self-cleavage of 0.15.
In the case of UAACAGGGGGCCACAGCAGAAGCGUUCACGUCGCUGCCCCUGUCAGAUCCUGGUGAGUCUGCGAAUUCUGCUGUAUAUCUC [A35U U49C A57G], the self-cleavage is reported as 0.08.
